The text below walks through data of PMC7819943, “Rice protein-binding microarrays: a tool to detect cis-acting elements near promoter regions in rice”.

The list shows a part of the results.

For this test, the target named is T1, OsWOX13 (Oryza sativa, UniProt Q5QMM3 1-267).
T1 sequence: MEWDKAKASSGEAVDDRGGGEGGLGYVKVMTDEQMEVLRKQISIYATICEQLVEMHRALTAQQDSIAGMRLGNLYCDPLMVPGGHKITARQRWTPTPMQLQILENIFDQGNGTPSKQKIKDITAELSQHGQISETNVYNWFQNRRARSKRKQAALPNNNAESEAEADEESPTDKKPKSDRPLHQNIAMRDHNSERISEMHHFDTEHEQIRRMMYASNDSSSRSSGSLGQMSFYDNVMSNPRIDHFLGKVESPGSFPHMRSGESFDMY
Description: protein-binding microarray (RPBM); PBS, 2% BSA, 51.3 ng/ul salmon testes DNA, 50 uM zinc acetate, 200 nM TF, 25 C, 1 h; high values mean tight binding. The settings on record: protein: recombinant; tags: N-terminal polyhistidine and DsRed monomer fusion (pET32a); label: CyDye5-dUTP incorporated in the synthesized complementary strand; 3' TTTTT single-stranded linker to array surface; dsDNA, one strand shown. Put shortly:
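Binding signal is reported as fluorescence intensity per feature (arbitrary units) from an Axon 4000B scanner. Incubation used 200 nM of each Ni–NTA-purified, N-terminally polyhistidine- and DsRed-fused transcription factor from E. coli BL21-CodonPlus on a double-stranded custom Agilent array for 1 h at 25 °C, with 50 µM zinc acetate in the buffer, followed by washing.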
Turning to “GGTGAGCTATTAGTACATGATTAATTGAGTATAAACTATTCGGAGTCACCTAGTGCAG”, the binding signal was 10800 fluorescence intensity (a.u.).
To “AACTTCCAAAACAAGCCCTTTGATTGGATGAACCAGCCGGCGGAGTCACCTAGTGCAG” belongs 5060 fluorescence intensity (a.u.); to “CCAAATAGCTATCAAAATTTGCCCAACTTTAACCGTGGCACGGAGTCACCTAGTGCAG”, 4710 fluorescence intensity (a.u.).
As for “ATCCTAGTAATTATAGCCGTTGGAAATGAAAAGAAACGATCGGAGTCACCTAGTGCAG”, the binding signal is 3270 fluorescence intensity (a.u.).
Turning to “TGACCGTTTGATTGAACGGTGAGAGAGAGACTTAAAGGAACGGAGTCACCTAGTGCAG”, the binding signal was 20900 fluorescence intensity (a.u.).
Under “CCCTCGTCAATTCGTTAATCATATTTCTACTAACCTAAGGCGGAGTCACCTAGTGCAG” stands 11500 fluorescence intensity (a.u.).
To “CATTTTAATTTAGACCACCATATTCTATCCATCTCCAAGTCGGAGTCACCTAGTGCAG” belongs 8420 fluorescence intensity (a.u.).
To “TCACTAAATAAATGATTAACTGTTCAATAGATCCTAAACCCGGAGTCACCTAGTGCAG” belongs 22300 fluorescence intensity (a.u.); to “GGTGACACACTTCTGATTGTGCACATATGTGGCATTCTGTCGGAGTCACCTAGTGCAG”, 6860 fluorescence intensity (a.u.); to “ATGATAAATTACTCCACAAATATGCAAGATAAAATTTAACCGGAGTCACCTAGTGCAG”, 9400 fluorescence intensity (a.u.).
“TCCGATTAATGTGGGAATTTCTAGCCCTCACAGCGAACGTCGGAGTCACCTAGTGCAG”: the binding signal is 5780 fluorescence intensity (a.u.).
Consider “ACAGATTGAGAGGGAGCTCAGGGAACCAGTCTCACAAAATCGGAGTCACCTAGTGCAG”, for which the binding signal was 8100 fluorescence intensity (a.u.).
Under “CAGATTAAACTGAATTATTACGAGATTGGCTTATGTGTGTCGGAGTCACCTAGTGCAG” stands 30500 fluorescence intensity (a.u.); under “CGCCCTAGATTGAGCCAACCTTTTAAAATCGTGTTAGAGCCGGAGTCACCTAGTGCAG”, 16700 fluorescence intensity (a.u.); under “GAATCTAGATTGACTGGTTTCACCACAAGAAACCTATCCACGGAGTCACCTAGTGCAG”, 45700 fluorescence intensity (a.u.).
Under “TAAACTGGCCGTAATTTAGCGTAGCTAAATTGTAAAACGCCGGAGTCACCTAGTGCAG” stands 13200 fluorescence intensity (a.u.); under “TACTGGTGCTTAATTGCATTGGCATTGTGCTGGCTCTATACGGAGTCACCTAGTGCAG”, 3150 fluorescence intensity (a.u.).
To “TAGAATAAATTGATTTAATTAAATGTAACATTAAATATATCGGAGTCACCTAGTGCAG” belongs 10100 fluorescence intensity (a.u.); to “AGGTTCTCTTAAAATGTCAATCAAAGCATGGGCGACCTCCCGGAGTCACCTAGTGCAG”, 18700 fluorescence intensity (a.u.); to “TGGGATAACACATGTATAATTAGGCCGACCGATCTACTTTCGGAGTCACCTAGTGCAG”, 3520 fluorescence intensity (a.u.).
On to “GTTGACGACGATGACAATGATTAGTTGCCCAAAGGTTATACGGAGTCACCTAGTGCAG”, for which the binding signal was 14900 fluorescence intensity (a.u.).
Under “TATGTTAAGATGATTGAAGCATATATCATGTCAGGGAAAGCGGAGTCACCTAGTGCAG” stands 22600 fluorescence intensity (a.u.); under “CTAAAATTAGAACCATGCCAATTTAATCACATTTTCCGTCCGGAGTCACCTAGTGCAG”, 10400 fluorescence intensity (a.u.).
Under “AATGATTGAAGGATATCCATTTGAATGATGGTATGCTTTACGGAGTCACCTAGTGCAG” stands 43000 fluorescence intensity (a.u.); under “GTTAATATATTGAGCAAATTATTCAGTACATCACAGCTCTCGGAGTCACCTAGTGCAG”, 7160 fluorescence intensity (a.u.); under “GGAGATGATGATTTACCTGTGATCTGTTTGGTCCTTGAGCCGGAGTCACCTAGTGCAG”, 19400 fluorescence intensity (a.u.).
To “ATCAAATTCCAATTCCAATTCCATTTTCTCGATCAAACACCGGAGTCACCTAGTGCAG” belongs 3850 fluorescence intensity (a.u.); to “AGTAATTGCTAATTGCTACTGCTAACTGGGGATTATCTCTCGGAGTCACCTAGTGCAG”, 32300 fluorescence intensity (a.u.); to “ATGATCAATCAGTAGATTATGCCCTGGTTATTCTTTATAACGGAGTCACCTAGTGCAG”, 25400 fluorescence intensity (a.u.).
With “ATTATATAAATGAGCTATTAGATTGCCTATAGATGGATTACGGAGTCACCTAGTGCAG”, the binding signal is 3900 fluorescence intensity (a.u.).
Under “AGCAACTTAGGTTAATTTTAATTAGGTGTCATTTAGTTTTCGGAGTCACCTAGTGCAG” stands 4900 fluorescence intensity (a.u.); under “TTTTGATAATATATTTGACATGCAAGAATGCCTTTTACGTCGGAGTCACCTAGTGCAG”, 4830 fluorescence intensity (a.u.).
To “CATAATTGTTTTCTGAGTAAATTTCACAAACTGCAATTGTCGGAGTCACCTAGTGCAG” belongs 42100 fluorescence intensity (a.u.).
As for “AATTAAGATATGATTAGGACTTTATGTAACAGAGGGAGCCCGGAGTCACCTAGTGCAG”, the binding signal was 15000 fluorescence intensity (a.u.).
Under “GTATCAATTATCAAACTTACCGAGGGTGGTGGCTGGTGCGCGGAGTCACCTAGTGCAG” stands 18600 fluorescence intensity (a.u.).
For “ACCCACTGATGGCAACTGTTAAACTAGCTCCAATTGTTTTCGGAGTCACCTAGTGCAG”, the binding signal was 3200 fluorescence intensity (a.u.).
Under “ACAGTGATTTGTATCTTTGTCAGCACTATACATGAAAATACGGAGTCACCTAGTGCAG” stands 11700 fluorescence intensity (a.u.); under “TTTAATTGTAACAAATATAACGAAATAATCAGATCCTTGACGGAGTCACCTAGTGCAG”, 28800 fluorescence intensity (a.u.).
As for “ACACATGATTTGCATGCCAACCTTATTTCTCCTTCACTTTCGGAGTCACCTAGTGCAG”, the binding signal was 16500 fluorescence intensity (a.u.).
To “AGTGGGAGTCAATCATGCGAGTTCACGTGCATCGCTGAGACGGAGTCACCTAGTGCAG” belongs 9570 fluorescence intensity (a.u.); to “GTCATAAATTTATGCGGATTGGTGATGACTTGGTGTTTCACGGAGTCACCTAGTGCAG”, 39000 fluorescence intensity (a.u.); to “CATGACCTGCAAATTAACTCAAAATTTCTCCCTCTTAAACCGGAGTCACCTAGTGCAG”, 4130 fluorescence intensity (a.u.).
To “AAACAGATTGAGTATGAGTCCCGTCGGAATGGGATACGTTCGGAGTCACCTAGTGCAG” belongs 12300 fluorescence intensity (a.u.); to “TTTCGTTAATTTTAAAATATATTGTGCAGTCTTTTGAGATCGGAGTCACCTAGTGCAG”, 20500 fluorescence intensity (a.u.); to “GACTTTAATGATGCTGACACCGGCTTAATTAGTATTGCGGCGGAGTCACCTAGTGCAG”, 8560 fluorescence intensity (a.u.).
For the sequence “TCTCCGTCCCCATCACCCTCGCAATTACTCCACCCGCCGGCGGAGTCACCTAGTGCAG”, the binding signal is 5550 fluorescence intensity (a.u.).
With “ACTTAAATGTAATTACAGTGTAACTTACATGTAACTACAGCGGAGTCACCTAGTGCAG”, the binding signal is 30000 fluorescence intensity (a.u.).
For “AATTTATTAAGCCTAATTAATCCATCATTAGTAAATGTTTCGGAGTCACCTAGTGCAG”, the binding signal is 5410 fluorescence intensity (a.u.).
Under “CGTGATTGGTGGCATACATACGCTTCTTCTAGAGACAAGACGGAGTCACCTAGTGCAG” stands 37700 fluorescence intensity (a.u.); under “GGTTTTAATAGATGGAGGTGTCGATATACCCAGTTTTGTGCGGAGTCACCTAGTGCAG”, 8390 fluorescence intensity (a.u.); under “CTCTGATCAAACTGACATGCATGGCACTAATTTTAGTTGACGGAGTCACCTAGTGCAG”, 11500 fluorescence intensity (a.u.).
Consider “TGTATTAATTGTGTAGTATATGTTTAAAGGTAATTATTGTCGGAGTCACCTAGTGCAG”, for which the binding signal was 20400 fluorescence intensity (a.u.).
Under “TTTACAAACACGCAAATTAAAATTTTATTTATACAATTAACGGAGTCACCTAGTGCAG” stands 4180 fluorescence intensity (a.u.).
Under “ATTCAATTTGCACTAATTTTGATAGTCAGGGAATACCCAACGGAGTCACCTAGTGCAG” stands 21100 fluorescence intensity (a.u.).
